At least one peptide structure holds a part that was inferred or is arguable (an end, a ring closure or a residue). Where no end group is shown, it is not given here.
Test system: CMV IgG-positive sera
Experiment: ELISA on peptide-coated microtiter plates with HCMV-positive human sera (localization of epitopes)
Assay type: binding
Details: plates coated with 2.5 μg peptide per ml, serum 1:2; for Reactivity (individual reactivities of the synthetic pXP1 segments with the assayed group of CMV IgG-positive sera): Table 2; for Reactivity (individual reactivities of particularly reactive peptides with the assayed group of CMV IgG-positive sera): Table 3
Description: A microtiter plate with 96 wells was coated with a synthesized peptide. To do this, a solution of 2.5 μg of peptide per ml of carbonate buffer was made up and introduced in 100 μl portions into the wells for the coating. The peptides were adsorbed onto the surfaces at 4° C. overnight and, after removal of the peptide solution, the wells were washed several times with washing buffer (50 mM Tris, pH 7.2, 10 mM EDTA, 0.2% Tween 20). Then individual human serum samples in a 1:2 dilution were introduced and incubated at 37° C. for 1 hour. After another washing step, the conjugate antibody specific for human IgG antibodies or human IgM antibodies and labeled with peroxidase was added and the mixture was incubated at room temperature for 0.5 hour. The reaction was subsequently stopped by adding 0.5 M sulfuric acid and extinction of the individual samples was measured at a wavelength of 450/650 nm in a photometer.
To test the immunogenicity, peptides of various length from the complete amino-acid sequence region from 718 to 880 of the HCMV protein pp150 (Tab. 2 and 3) were synthesized as described in Example 1. Subsequently, as in Example 2, the microtiter plates were coated with the synthesized peptides, and the immunological reactivity was assayed. […] The three immunologically reactive peptides have the following sequences: […]

Substance | Reactivity (individual reactivities of the synthetic pXP1 segments with the assayed group of CMV IgG-positive sera) [%] | Reactivity (individual reactivities of particularly reactive peptides with the assayed group of CMV IgG-positive sera) [%]
AGAAILTPTPV [Peptide 16, ala gly ala ala ile leu thr pro thr pro val] | 40 | –
ANWPRERAWALKNPHLA [Peptide 2.8, ala asn trp pro arg glu arg ala trp ala leu lys asn pro his leu ala] | 70 | 70
AYKFEQPTLTFGAGVNVPAGAGAAIL [Peptide 1.1, ala tyr lys phe glu gln pro thr leu thr phe gly ala gly val asn val pro ala gly ala gly ala ala ile leu] | – | 80
AYKFEQPTLTFGAGVNVPAGAGAAILTPTPVNPSTAPAPAP-NH2 [Peptide 1.15, ala tyr lys phe glu gln pro thr leu thr phe gly ala gly val asn val pro ala gly ala gly ala ala ile leu thr pro thr pro val asn pro ser thr ala pro ala pro ala pro NH2] | 85 | 85
AYKFEQPTLTFGAGVNVPAGAGAAILTPTPVNPSTAPAPAPTPTFAGTQTP [Peptide 1.14, ala tyr lys phe glu gln pro thr leu thr phe gly ala gly val asn val pro ala gly ala gly ala ala ile leu thr pro thr pro val asn pro ser thr ala pro ala pro ala pro thr pro thr phe ala gly thr gln thr pro] | – | 60
DMNPANWPRERAWALKNPHL [Peptide 2.2, asp met asn pro ala asn trp pro arg glu arg ala trp ala leu lys asn pro his leu] | – | 75
DMNPANWPRERAWALKNPHLAYNPF [Peptide 2.1, asp met asn pro ala asn trp pro arg glu arg ala trp ala leu lys asn pro his leu ala tyr asn pro phe] | 80 | 80
DMNPANWPRERAWALKNPHLAYNPFRMPTTSTA [Peptide 2.9, asp met asn pro ala asn trp pro arg glu arg ala trp ala leu lys asn pro his leu ala tyr asn pro phe arg met pro thr thr ser thr ala] | – | 80
DPRFTDTLVDI [Peptide 20, asp pro arg phe thr asp thr leu val asp ile] | 10 | –
ERAWALKNPHLAYNPFRMPTT [Peptide 2.6, glu arg ala trp ala leu lys asn pro his leu ala tyr asn pro phe arg met pro thr thr] | – | 70
ETSAKPPVTTAYKFE [Peptide 14, glu thr ser ala lys pro pro val thr thr ala tyr lys phe glu] | 10 | –
FEQPTLTFGAGVNVPAGAGAAILTPTPV [Peptide 1.2, phe glu gln pro thr leu thr phe gly ala gly val asn val pro ala gly ala gly ala ala ile leu thr pro thr pro val] | – | 80
FEQPTLTFGAGVNVPAGAGAAILTPTPVNPSTA [Peptide 1.3, phe glu gln pro thr leu thr phe gly ala gly val asn val pro ala gly ala gly ala ala ile leu thr pro thr pro val asn pro ser thr ala] | – | 85
GAGAAILTPTPVNPSTAPAPAPTPTFAGTQTP [Peptide 1.12, gly ala gly ala ala ile leu thr pro thr pro val asn pro ser thr ala pro ala pro ala pro thr pro thr phe ala gly thr gln thr pro] | – | 80
GAGVNVPAGAGAAILTPTPVNPSTAPAPA [Peptide 1.16, gly ala gly val asn val pro ala gly ala gly ala ala ile leu thr pro thr pro val asn pro ser thr ala pro ala pro ala] | – | 70
GAGVNVPAGAGAAILTPTPVNPSTAPAPAP-NH2 [Peptide 1.11, gly ala gly val asn val pro ala gly ala gly ala ala ile leu thr pro thr pro val asn pro ser thr ala pro ala pro ala pro NH2] | 90 | 90
GTQTPVNGNSPWAPTA [Peptide 7, gly thr gln thr pro val asn gly asn ser pro trp ala pro thr ala] | 20 | –

Substance | Reactivity (individual reactivities of the synthetic pXP1 segments with the assayed group of CMV IgG-positive sera) [%] | Reactivity (individual reactivities of particularly reactive peptides with the assayed group of CMV IgG-positive sera) [%]
HLAYNPFRMPTTSTA [Peptide 18, his leu ala tyr asn pro phe arg met pro thr thr ser thr ala] | 60 | –
ILTPTPVNPSTAPA [Peptide 10, ile leu thr pro thr pro val asn pro ser thr ala pro ala] | 40 | –
ITDTETSAKPPVTTAYKFEQPTL [Peptide 21, ile thr asp thr glu thr ser ala lys pro pro val thr thr ala tyr lys phe glu gln pro thr leu] | 20 | –
KFEQPTLTFGAGV [Peptide 15, lys phe glu gln pro thr leu thr phe gly ala gly val] | 20 | –
LTFGAGVNVPAGAGAAIL [Peptide 9, leu thr phe gly ala gly val asn val pro ala gly ala gly ala ala ile leu] | 60 | –
PAGAGAAILTPTPVNPSTAPA [Peptide 1.8, pro ala gly ala gly ala ala ile leu thr pro thr pro val asn pro ser thr ala pro ala] | – | 70
PANWPRERAWALKNPHL [Peptide 2.3, pro ala asn trp pro arg glu arg ala trp ala leu lys asn pro his leu] | – | 70
PANWPRERAWALKNPHLAYN [Peptide 2.4, pro ala asn trp pro arg glu arg ala trp ala leu lys asn pro his leu ala tyr asn] | – | 70
PFRMPTTSTASQNTV [Peptide 11, pro phe arg met pro thr thr ser thr ala ser gln asn thr val] | 60 | –
PTLTFGAGVNVPAGAGAAILTPTPVNPSTAPAPA [Peptide 1.5, pro thr leu thr phe gly ala gly val asn val pro ala gly ala gly ala ala ile leu thr pro thr pro val asn pro ser thr ala pro ala pro ala] | – | 80
PTLTFGAGVNVPAGAGAAILTPTPVNPSTAPAPAP-NH2 [Peptide 1.6, pro thr leu thr phe gly ala gly val asn val pro ala gly ala gly ala ala ile leu thr pro thr pro val asn pro ser thr ala pro ala pro ala pro NH2] | 90 | 90
PVTTAYKFEQPTLTF [Peptide 8, pro val thr thr ala tyr lys phe glu gln pro thr leu thr phe] | 10 | –
QNTVSTTPRRPSTPRAAVTQTA [Peptide 4, gln asn thr val ser thr thr pro arg argpro ser thr pro arg ala ala val thr gln thr ala] | 40 | –
VNPSTAPAPAPT [Peptide 17, val asn pro ser thr ala prb ala pro ala pro thr] | 10 | –
VNVPAGAGAAILTPTPVNP [Peptide 1.7, val asn val pro ala gly ala gly ala ala ile leu thr pro thr pro val asn pro] | – | 70
VNVPAGAGAAILTPTPVNPSTAPAPAPTPTF [Peptide 1.9, val asn val pro ala gly ala gly ala ala ile leu thr pro thr pro val asn pro ser thr ala pro ala pro ala pro thr pro thr phe] | – | 70

— US6143493A, “HCMV-specific peptides, agents therefor and the use thereof” (Dade Behring Marburg GmbH, priority 1991, dated 2000)
